The labels stand for the following.
B1: tRNA (parent)
chain: CUCUCGGUAGCCAAGUUGGUUUAAGGCGCAAGACUUUAAUUUAUCACUACGAAAUCUUGAGAUCGGGCGUUCGACUCGCCCCCGGGAGAUUUUUUCCUCGAGCAA

Variants at the floor of the assay are shown more often than the library holds them.

Variants of B1 are the subject of the data set. Nature of the data set: nonsense suppression (GFP-seq) (ratio to wild type); higher = more function; SUP4oc tRNA, yeast GFP reporter sort-seq. The procedure, abridged: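 Yeast carrying genome-integrated SUP4oc tRNA variants from a library with ~3% random mutations were grown in raffinose/galactose medium with 80 mg/L adenine. Each strain also carried a galactose-driven GFP ochre reporter and RFP. Cells were sorted into GFP/RFP bins, and each bin was Illumina-sequenced (phred ≥30). Nonsense suppression (GFPSEQ) is the bin median GFP/RFP, weighted by each variant's estimated cell share per bin, relative to wild-type SUP4oc; variants needed ≥100 reads and ≥30 cells.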
CUCUCGGUAGCCACGCUGGUUUAUGGCGCAAGAUUUUAAUUUAUCACUACGAAAUCUUGAGAUCGGGCGUUCGACUCGCCCCCAGGAGAUUUUUUCCUCGAGCAA [A14C U16C A24U C34U G84A]: the nonsense suppression was at most 0.026.

On to CUCUCGGUAGCCAAGUUGGUUUAAGGCGGAAGACUUUAAUUUAUCACUACGAAAUCUUGAGAACGGGCGUUCGACUCGCUCCCGGGAGAUUUUUUCCUCGAGCAA [C29G U63A C80U], for which the nonsense suppression was at most 0.026.

As to CUCUCGGUAGCCAAGUUGGUUUAAGGCGCAAGACAUUAAUUUAUCACUACGAAGUCUUGAGAUCGGGCGUUCGACCCGCCCCCGGGAGAUUUUUUCCUCGAGCAA [U35A A54G U76C], the nonsense suppression was at most 0.026.

Turning to CUCUCGGUAGCCAAGUUGGUUUAACGCGCAAGACUUUAAUUUAUCACUACGAAAUCUUGAGAACGGGCGUUCGACUCGCCCCCGGGAGAUUUUUUCCUCGAGCAA [G25C U63A], the nonsense suppression is at most 0.026.

CUCUCGGUAGCCAAGUUGGGUUAAGGCGCAACACUUUAAUUUAUCACUACGAAAUCUUGAGUUCGGGCGUUCGACUCGCCCCCGGGAGAUUUUUUCCUCGAGCAA [U20G G32C A62U]: the nonsense suppression is at most 0.026.

As for CUCUCGGUAGCCAAGUUGGUUUAAGGCACAAGACUUUAAUUUAUCACUACGAAAUCUUGGGAUCGGGCGUUCGACUCGCCCCCGGGAGAUUUUUUCCUCGAGCAA [G28A A60G], the nonsense suppression stood at 1.07.

Regarding CUCUCGGUAGCAAAGUUGGUUUAAGGCGCAAGAAUUUAAUUUAUCACUACGAAAUCUUGCGAUCGGGCGUUCGACUCGACCCCGGGAGAUUUUUUCCUCGAGCAA [C12A C34A A60C C79A], the nonsense suppression is at most 0.026.

In the case of CUCUCGGUAGCCAAGUUGGUUUAAGGCGCAAGACUUUAAUUUAUCACUACGAAAGGUUGAGAUCGGGCGUUCGACUCACCUCCGGGAGAUUUUUUCCUCGAGCAA [U55G C56G G78A C81U], the nonsense suppression is at most 0.026.

As for CUCUCGGUUGGCAAGUGGGUUUAAGGCGCAAGACUUUAAUUUAUCACUACGAAAUCUUGAGAUCGGUCGAUCGACUCGCCCCCGGGAGAUUUUUUCCUCGAGCAA [A9U C11G U17G G67U U70A], the nonsense suppression was at most 0.026.

Take CUCUCGUUAGCCAAGUUGGUUUAAGGCGCAAGACUUUAAUUUAUCACUACGAAAUCCUGAGAUCAGGCGUUCGACUCGCCCCCGGGAGAUUUUUUCCUCGAGCAA [G7U U57C G65A]: the nonsense suppression is at most 0.026.

Consider UUCUCGGUAGCCAAGUUGGUUUAAGGCGCAGGACUUUAAUUUAUCACUACGAAAUCUUGAGAUCGGGCGUUCGACUCGCCCCCGGGAAAUUUUUUCCUCGAGCAA [C1U A31G G88A], for which the nonsense suppression was at most 0.026.

Turning to CUCUCGGUAGCCAAGUUGGUUUAAGGCGCAAGAAUUUAAUUUAUCACUACGAAAUCUUGAGAUCGGGCGUUCGACUCGCCCCUGGGAGAUUUUUUCCUCGAGCAA [C34A C83U], the nonsense suppression is at most 0.026.

As for CUCUCGGUAGCCAAGUUGGUUUAAGGCGCAAGACUUUAAUUUAUCACUACGAAAUCGUGAAAUCGGGCGUUCGACUCGCCCCCGGGAGAUUUUUUCCUCGAGCAA [U57G G61A], the nonsense suppression was at most 0.026.

With CUCUCGGUAGCCAAGUUGCUUUAAGGCGCAAGACUUUAAUUUAUCACUACGAAAUCUUGAGAUCGGGCGUUCGACUCGCCCCCGGGAGUUUUUUUCCUCGAGCAA [G19C A89U], the nonsense suppression was at most 0.026.

With CUCUCGGUAGCCGCGUUGGUUUAAGGGGCAAGGCUUUAAUUUAUCACUACGAAAUCUUGAGAUCGGGCGUUCCACUCGCCCCCGGGAGAUUUUUUCCUCGAGCAA [A13G A14C C27G A33G G73C], the nonsense suppression is at most 0.026.

On to CUCUCGGUAGCCAAGUUGGUUUAAGGGGCAAGACUUUAAUUUAUCACUACGAAAUCUUGAGAUCCGGCGUUCGACCCGCCCCCGGGAGAUUUUUUCCUCGAGCAA [C27G G65C U76C], for which the nonsense suppression is at most 0.026.

Take CUCUCGGUAGCCAAGUUGGUUUAAGGCGCCAGACUUUAAUUUAUCACUACGAACUCUUGAGAUCGGGCGUUCUACUCGCCCCCGGGAGAUUUUUUCCUCGAGCAA [A30C A54C G73U]: the nonsense suppression is at most 0.026.

As to GUCUCGGUAACCAAGUUGGUUUCAGGCGCAAGUCUUUAAUUUAUCACUACGAAAUCUUGAGAUAGGGCGUUCGACUCGCCCCCGGGAGAUUUUUUCCUCGAGCAA [C1G G10A A23C A33U C64A], the nonsense suppression is at most 0.026.

In the case of AUCUCGGUAGACAAGUUGGUUUAAGGCGCAAGACUUUAAUUUAUCACUACGAAAUCUCGAGAUCGGACGUACGACUCGCCCCCGGGAGAUUUUUUCCUCGAGCAA [C1A C11A U58C G67A U71A], the nonsense suppression is at most 0.026.

With CUCUCGGUGGCCAAGUUCGUUUAAGGCGCAAGACUUUAAUUUAUCACUACGAAAUCUUGAGAUCGGGCGUUCGACUCCCCCCCGGGAGAUUUUUUCCUCGAGCAA [A9G G18C G78C], the nonsense suppression is at most 0.026.

For CUCUCGGUAGCCAAGUUGGUUUUAGGCGCAAUACUUUAAUUUAUCACUACGAAAUCUUGAGAGCGGGAGAUCGCCUCGCCCCCGGGAGAUUUUUUCCUCGAGCAA [A23U G32U U63G C68A U70A A74C], the nonsense suppression is at most 0.026.

In the case of CUCUCGGUAGCCAAGUAGGUUUAAGGCGCAAGACUUUAAUUUAUCACUACGAAAUCUUGAGAUCGGUCGUUCGACUCGCCCCCGGGAGAUUUUUUCCUCGAGCAA [U17A G67U], the nonsense suppression was at most 0.026.

Consider CUCUCGGUAGCCAGGUUGGUUUAAGGCGCAAGACUUUAAUUUAUCACUACGAAAUCAUGAGAUCGGGCGCUCAACUCGCCCCCGGGAGAUUUUUUCCUCGAGCAA [A14G U57A U70C G73A], for which the nonsense suppression is at most 0.026.

Take CUCUCGGUAGCCAAGUUGGUUUAGGGCGCAAGACUUUAAUUUAUCACUACGAAAUCUUGAUAUCGGGCGUUCGACACGCCCCCGGGAGAUUUUUUCCUCGAGCAA [A24G G61U U76A]: the nonsense suppression was at most 0.026.

For CUCUCGGUAGCCAAGUUGGUUUAAGGCGCAAGACUUUAAUUUAUCACUACGAAAUCUUGAGACCGGGCAUUCGACUCGCCCCCGGGAGAUUUUUUCCUCGAGCAA [U63C G69A], the nonsense suppression was at most 0.026.

In the case of AUCUCGGUAGCCAAGUUGGUUUAAGGCGCAAGACUUUAAUUUAUCACUACGAAAUCUUGAGAUCGGGCAUUCCACACGCCCCCGGGAGAUUUUUUCCUCGAGCAA [C1A G69A G73C U76A], the nonsense suppression was at most 0.026.

As for CCCUCGGUAGCCUAGCUGGUUUAAGGCGCAAGACUUUAAUUUAUCACUACGAAAUCUUGAGAUCAUGCGUUCGACUCGCCCCCGGGAGAUUUUUUCCUCGAGCAA [U2C A13U U16C G65A G66U], the nonsense suppression is at most 0.026.

The values are drawn from the RNAGym collection of RNA variant scans (doi:10.1101/gad.245936.114).
